The record followed here is publication PMC7819943, “Rice protein-binding microarrays: a tool to detect cis-acting elements near promoter regions in rice”.

The list shows a part of the results.

For this assay, the target named is T1, OsWOX13 (Oryza sativa, UniProt Q5QMM3 1-267).
T1 sequence: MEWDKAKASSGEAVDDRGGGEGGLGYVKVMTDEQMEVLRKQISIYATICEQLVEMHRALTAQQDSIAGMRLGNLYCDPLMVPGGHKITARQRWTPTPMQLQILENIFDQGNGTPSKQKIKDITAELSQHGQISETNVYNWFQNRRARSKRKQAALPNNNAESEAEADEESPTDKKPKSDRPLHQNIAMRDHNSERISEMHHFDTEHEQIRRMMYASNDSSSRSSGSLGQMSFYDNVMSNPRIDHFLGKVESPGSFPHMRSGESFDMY
In words: protein-binding microarray (RPBM); PBS, 2% BSA, 51.3 ng/ul salmon testes DNA, 50 uM zinc acetate, 200 nM TF, 25 C, 1 h; high values mean tight binding. The settings on record: protein: recombinant; tags: N-terminal polyhistidine and DsRed monomer fusion (pET32a); label: CyDye5-dUTP incorporated in the synthesized complementary strand; 3' TTTTT single-stranded linker to array surface; dsDNA, one strand shown. The method in brief:
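The binding signal for each feature is its fluorescence intensity in arbitrary units. An Axon 4000B scanner was used to read a custom Agilent array that had been made double-stranded with Cy5-dUTP primer extension, blocked with 2% BSA, incubated at 25 °C for 1 h with 200 nM protein in PBS, 2% BSA, salmon testes DNA and 50 µM zinc acetate, and washed. The protein was an N-terminal polyhistidine–DsRed transcription factor fusion from E. coli BL21-CodonPlus, purified on Ni–NTA.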
For the sequence “TTAATTAGCATGTCAAGAGATTAATTAAAGGTTCAACTAGCGGAGTCACCTAGTGCAG”, the binding signal was 24800 fluorescence intensity (a.u.).

In the case of “TGGCTAATCATGGTCTAATTATGCTCAAAAGATTCGTCTCCGGAGTCACCTAGTGCAG”, the binding signal was 38000 fluorescence intensity (a.u.). As for “TGACATGATTAGAGGTGTTAATTGGATAAAACAACTGCGTCGGAGTCACCTAGTGCAG”, the binding signal is 35500 fluorescence intensity (a.u.). For “TTTATGAGTGACCAAATAATTGATCATAATTTCCAGAAATCGGAGTCACCTAGTGCAG”, the binding signal is 12100 fluorescence intensity (a.u.). “CGTTAGTCCGTTTTGCTTTTCTTATTGTAGTTCAGTTCTTCGGAGTCACCTAGTGCAG”: the binding signal is 3160 fluorescence intensity (a.u.). On to “GGCATGCAGAGGCCGATTCATCAATCAATGGATCGATTAACGGAGTCACCTAGTGCAG”, for which the binding signal is 3530 fluorescence intensity (a.u.). With “TCTATTAATTTGCTACCCTTTCTGCATCACGGCCCTTATTCGGAGTCACCTAGTGCAG”, the binding signal was 16200 fluorescence intensity (a.u.). Take “TCGTACTGTAATTACATTGTAAGTTACATGTAATTACACTCGGAGTCACCTAGTGCAG”: the binding signal was 13600 fluorescence intensity (a.u.). For “AGCCCTAATTTACTGTAATTAGTGTTGGCTATGTAATTAGCGGAGTCACCTAGTGCAG” the value was 44800 fluorescence intensity (a.u.).

As for “TGTTTAGACTGAACTGCAAGGCTGTTTTGATCCGGCGGTGCGGAGTCACCTAGTGCAG”, the binding signal was 3590 fluorescence intensity (a.u.). Consider “ATTGACTCTTTAATTAAATCCATAACTTGAGTGCATGGTTCGGAGTCACCTAGTGCAG”, for which the binding signal was 11200 fluorescence intensity (a.u.). In the case of “ACTTTAATTAGTTACGGCAGATGGATGATAGTACGTAGGACGGAGTCACCTAGTGCAG”, the binding signal is 26100 fluorescence intensity (a.u.). The same measure for “TAATTAATCATGTGCTAATTTGCTGTTCCAATTTGCGTGTCGGAGTCACCTAGTGCAG”: 36600 fluorescence intensity (a.u.).

In the case of “CAAAATCAGATATATAACATCTATCAACTTACAAAACCGTCGGAGTCACCTAGTGCAG”, the binding signal is 3540 fluorescence intensity (a.u.). With “GGGGAGGGGAGGGGAAGATCTAGAACCGCGGGGAAGACGACGGAGTCACCTAGTGCAG”, the binding signal was 3500 fluorescence intensity (a.u.).

In the case of “CTTATTGACATGTACTCCAAATCAGGGAGGTTGTCGGTAGCGGAGTCACCTAGTGCAG”, the binding signal was 11900 fluorescence intensity (a.u.). Regarding “ATAGATAAATTTAGAGGTGATAGTCACATGTACCATAGCACGGAGTCACCTAGTGCAG”, the binding signal was 11400 fluorescence intensity (a.u.). For “TTAAATATATATTAAATGATTCGAACATGCATAGACAAAACGGAGTCACCTAGTGCAG”, the binding signal is 3460 fluorescence intensity (a.u.). Turning to “GCTATGATTGTCTTTAGGGTATCTAATAATTGTGGTTTGACGGAGTCACCTAGTGCAG”, the binding signal is 21700 fluorescence intensity (a.u.). For “TAAAATTTACTCCTATGAAGATTTAAACTTAGAACCTTGGCGGAGTCACCTAGTGCAG” the value was 3670 fluorescence intensity (a.u.). For “AAAACAGGTAAATTTATAATGGCATGCATCCAATTAACTCCGGAGTCACCTAGTGCAG” the value was 13800 fluorescence intensity (a.u.); for “GCTGAATGCTAATCTCTGTTACTGAAACCACTCAAACACTCGGAGTCACCTAGTGCAG”, 5180 fluorescence intensity (a.u.); for “CCTGTGATGACTTCGTTAATGTCAACGTATGTCGGATGAGCGGAGTCACCTAGTGCAG”, 11500 fluorescence intensity (a.u.). For the sequence “AGCCAAATCATCCGGACTAATCTGGACCGTCCATCCGCGCCGGAGTCACCTAGTGCAG”, the binding signal was 4540 fluorescence intensity (a.u.). With “CGCATGATCAAAATTAATTCGAAAACATAATCTAGAGGATCGGAGTCACCTAGTGCAG”, the binding signal is 7870 fluorescence intensity (a.u.). On to “GTACCTACCAGTAATTAATCAGCAGGCTCACTGTAATCAACGGAGTCACCTAGTGCAG”, for which the binding signal was 3470 fluorescence intensity (a.u.).

As to “TCTGATTTGGAGTCACAAGAAAATACTCCTCCATCCAATCCGGAGTCACCTAGTGCAG”, the binding signal was 21200 fluorescence intensity (a.u.). Regarding “CCAAAATTTACAATTTCTAGTGGCGCACGCGGGAATGCAACGGAGTCACCTAGTGCAG”, the binding signal is 13100 fluorescence intensity (a.u.).

“GATTTAAATTAATTTTGATCAAACTTATAGAAATTATAGCCGGAGTCACCTAGTGCAG”: the binding signal was 50100 fluorescence intensity (a.u.). The same measure for “TGGGTCATTTATTGATTATTGTATTATTGTTCCTTATATTCGGAGTCACCTAGTGCAG”: 10300 fluorescence intensity (a.u.); for “CAATAATTTATGATATAGCATATTTGTTAAACCAAATAAACGGAGTCACCTAGTGCAG”: 5520 fluorescence intensity (a.u.); for “GTAAATTACATGGAGCCCAACACCGCTTTCTATTAGGGGTCGGAGTCACCTAGTGCAG”: 14800 fluorescence intensity (a.u.).

For “ATGTAATTGTAGTGTAACTATTATGTAATTGCAGTGTAACCGGAGTCACCTAGTGCAG”, the binding signal was 26500 fluorescence intensity (a.u.). For “TCTGACAGGCCGAATCCTCTCCGGATCCCGGTCCATCTCCCGGAGTCACCTAGTGCAG” the value was 10200 fluorescence intensity (a.u.). “TGTAATTTAATTTTGCCTCCACATTTCCTGACTTTGGCCACGGAGTCACCTAGTGCAG”: the binding signal was 45700 fluorescence intensity (a.u.).

For “ATTCTGATTCTGAAAGAAACTGCAATTACCGGAAGCTCTCCGGAGTCACCTAGTGCAG”, the binding signal was 3750 fluorescence intensity (a.u.). On to “TACACAAACATATAATTACACGAAAACTAAGGCCGTGTTTCGGAGTCACCTAGTGCAG”, for which the binding signal was 5170 fluorescence intensity (a.u.). Consider “ACCATAACTCTATCAAACACTCAATTATATCCATATGCTTCGGAGTCACCTAGTGCAG”, for which the binding signal is 5460 fluorescence intensity (a.u.).

Take “TTAAATAAATCAGTTAGCAGTGCTGAAGGTTTATTGATAACGGAGTCACCTAGTGCAG”: the binding signal was 4300 fluorescence intensity (a.u.).

On to “ACGATGAAAATCAACTTAATTATAGAAATAGAAATCGACACGGAGTCACCTAGTGCAG”, for which the binding signal was 7260 fluorescence intensity (a.u.). “GGAGTTTTAATAATGATTTTAGGGTGGGTGGAAAGATTACCGGAGTCACCTAGTGCAG”: the binding signal is 3630 fluorescence intensity (a.u.). With “AAAATAAACAAATCTATCCACTAACAATTTGACATGATATCGGAGTCACCTAGTGCAG”, the binding signal is 7240 fluorescence intensity (a.u.).
